# In PubChem BioAssay AID488969 (Vanderbilt High Throughput Screening Facility, 2010):
# Whole data set: some 110,000 compounds, median “z-score” near -0.1, cut for the highest 2% near 2. The list shows a part of the results. Active and inactive are the calls of the source.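 The calls were made as follows: active = z-score in the third read window above 3 or below -3; inactive = the rest.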
# Molecular target: Metabotropic glutamate receptor 8 (Rattus norvegicus) (UniProt P70579)
# Assay: rat mGluR8 modulators via GIRK flux, primary screen, cell-based, thallium flux, HTS (AID 488969)
# Settings: HEK293 rat mGluR8, GIRK (G protein-gated inwardly rectifying potassium channel) thallium flux, FluoZin2; at 10 µM; stronger effect = higher value; submaximal glutamate (EC20) added with thallium
# Sequence of UniProt P70579 (P70579 whole entry, looked up): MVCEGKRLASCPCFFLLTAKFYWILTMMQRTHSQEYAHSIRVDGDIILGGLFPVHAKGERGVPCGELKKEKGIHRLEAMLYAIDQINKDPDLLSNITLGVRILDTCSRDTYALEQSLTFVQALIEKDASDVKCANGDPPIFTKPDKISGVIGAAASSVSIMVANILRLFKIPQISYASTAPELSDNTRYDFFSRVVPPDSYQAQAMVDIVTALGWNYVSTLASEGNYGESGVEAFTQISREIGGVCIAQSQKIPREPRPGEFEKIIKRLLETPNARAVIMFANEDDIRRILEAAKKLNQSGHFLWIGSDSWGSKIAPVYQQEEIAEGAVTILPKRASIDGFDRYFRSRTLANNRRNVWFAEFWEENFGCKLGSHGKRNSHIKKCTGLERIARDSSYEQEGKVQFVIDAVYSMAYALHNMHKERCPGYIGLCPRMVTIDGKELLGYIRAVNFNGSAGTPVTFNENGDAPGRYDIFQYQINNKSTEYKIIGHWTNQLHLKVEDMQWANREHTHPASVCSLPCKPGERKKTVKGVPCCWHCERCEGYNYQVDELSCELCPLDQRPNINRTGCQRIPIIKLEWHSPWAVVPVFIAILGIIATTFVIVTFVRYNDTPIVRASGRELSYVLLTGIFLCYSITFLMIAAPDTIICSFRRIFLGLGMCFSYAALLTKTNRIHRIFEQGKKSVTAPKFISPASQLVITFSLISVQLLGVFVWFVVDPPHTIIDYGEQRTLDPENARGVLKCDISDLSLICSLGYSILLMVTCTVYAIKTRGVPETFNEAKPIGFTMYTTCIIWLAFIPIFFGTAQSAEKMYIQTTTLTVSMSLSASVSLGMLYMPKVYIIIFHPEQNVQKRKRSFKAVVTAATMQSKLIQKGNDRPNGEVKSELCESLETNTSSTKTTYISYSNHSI
row,SMILES,z-score
1,Cc1ccc(Cl)cc1NC(=S)NCc1cccn1C,active: 6.81
2,Cc1cccc(NC(=O)c2cc3c(n(-c4ccccc4)c2=O)CCCC3=O)n1,-0.15
3,O=c1c2c(n3nnnc3n1Cc1ccccc1)-c1ccccc1CC21CCCC1,0.0259
4,COc1ccc(CNC(=O)COC(=O)c2c(-c3c(F)cccc3Cl)noc2C)cc1OC,-0.0955
5,CCNC(=S)Nc1cc(OCC)c(NC(=O)c2cccs2)cc1OCC,-0.0899
6,CCn1nnc(NC(=O)COc2ccc(C3CCCCC3)cc2)n1,2.13
7,Cc1nnc(SCCC(C)C)[nH]c1=O,-0.307
8,COc1cc(/C=N/NC(=O)CNC(=O)c2ccc3c(c2)OCCO3)ccc1O,-0.118
9,CC(=O)OCCNC(=O)c1cccnc1,-0.0149
10,CC(=O)c1c(C)[nH]c(C(=O)N2CCCCCC2)c1C,1.14
11,C=CCNC(=O)c1ccccc1NC(=O)c1ccccc1,0.00566
12,N#CCCN(Cc1cccnc1)C(=O)Nc1ccccc1,-0.271
13,COc1ccc(C(O)c2nccn2Cc2ccccc2)cc1OC (stereo unspecified),-0.853
14,O=C(Nc1ccccc1-c1nnn(CC(=O)N2CCCc3ccccc32)n1)c1ccco1,-1.68
15,CCn1nc(C(=O)OCC(=O)c2cc(C)n(Cc3cccs3)c2C)c2ccccc2c1=O,-0.613
16,O=C(c1ccco1)n1nc(-c2ccco2)nc1SCc1ccccc1,1.94
17,CC(C)C1CC(CCNCc2ccc(N(C)C)cc2)(c2ccccc2)CCO1 (stereo unspecified),0.098
18,Cc1noc(C)c1S(=O)(=O)NC1CCCc2ccccc21 (stereo unspecified),-0.523
19,CCN(/N=C/c1cccs1)c1cc(=O)n(C)c(=O)[nH]1,-0.0804
20,CN1CCN(C(=O)C2CC(c3ccc(F)cc3)=NO2)CC1 (stereo unspecified),-0.666
21,COc1cc(-n2nc(C)c3c2OC(N)=C(C#N)C3c2ccccc2)c(Cl)c(Br)c1O (stereo unspecified),-2.33
22,CCCCn1c(N)c(NCC(C)C)c(=O)[nH]c1=O,-0.134
23,COc1ccc(C/C(N)=N/OC(=O)c2cccc([N+](=O)[O-])c2)cc1,-0.159
24,COC(=O)c1sccc1NC(=O)c1c(C)noc1C,-0.227

row,SMILES,z-score
1,O=[N+]([O-])c1ccc(-c2nc(-c3cccs3)c(-c3cccs3)[nH]2)cc1,-0.0835
2,O=C(NCc1cccnc1)c1cn(CCc2ccccc2)nn1,-0.908
3,O=C(Cn1cnc2c(nnn2Cc2ccc(F)cc2)c1=O)N1CCN(c2ccccc2)CC1,-0.0198
4,CCOC(=O)c1sc2nc(CC(=O)OC)nc(N3CCN(c4ccc(OC)cc4)CC3)c2c1C,-0.181
5,COc1ccc(-c2nc(CS(=O)CC(=O)NCc3ccc4c(c3)OCO4)c(C)o2)cc1 (stereo unspecified),-0.429
6,Cc1ccc(NC(=O)NC(=O)CSc2nnnn2C)c(C)c1,-0.438
7,Cc1cc(C)c2nc(N3CCCC(C(=O)N4CCN(c5ncccn5)CC4)C3)sc2c1 (stereo unspecified),0.0411
8,O=S(=O)(c1ccc2oc3ccccc3c2c1)N1CCOCC1,-0.195
9,Cc1cccc(N2CCN(C(=O)C(NS(=O)(=O)c3cccs3)c3ccccc3)CC2)c1C (stereo unspecified),0.407
10,CCOC(=O)c1c(P(=O)(N2CCOCC2)N2CCOCC2)noc1N,-0.0555
11,O=C(CCCSc1nnnn1-c1cccc2ccccc12)c1ccc(F)cc1,-0.0209
12,CCOc1ccc(N(CC(=O)Nc2ccccc2C(=O)N2CCOCC2)S(=O)(=O)c2ccc(F)cc2)cc1,-0.168
13,CCCn1c(SCC(=O)Nc2cc(C)on2)nc2c1c(=O)n(C)c(=O)n2C,-0.515
14,COc1cccc(-c2csc(N3CCN(C(=O)NC45CC6CC(CC(C6)C4)C5)CC3)n2)c1,0.286
15,O=C(c1cccs1)N1CCC(c2nc(-c3ccc(S(=O)(=O)N4CCOCC4)cc3)no2)CC1,-0.344
16,Cc1c(C(=O)OC(C)C(C)C[N+](C)(C)C)oc2ccccc12 (stereo unspecified),-0.419
17,O=C(NCc1ccco1)c1ccccc1F,0.717
18,CCOC(=O)N1CCN(CC(O)COCC2=CCC3CC2C3(C)C)CC1 (stereo unspecified),-0.486
19,Cc1ccccc1CN1CCN(CC(=O)NCc2ccccn2)C1=O,0.684
20,N#CCCN1CCN(S(=O)(=O)c2ccc(C#N)cc2)CC1,-0.131
21,Cc1csc(OCC(=O)Nc2ccc(C)c(C)c2)n1,0.461
22,O=C(NCc1cccnc1)C1CC2c3ccccc3C1c1ccccc12 (stereo unspecified),-0.134
23,COc1ccc(OC)c(NC(=O)CCCN2C(=S)NC(C)(C)CC2C)c1 (stereo unspecified),-0.309
24,CC(C)Sc1nc2ccccc2c(=O)[nH]1,-0.257

row,SMILES,z-score
1,CCc1ccc2ncc(S(=O)(=O)c3ccc(C)c(C)c3)c(N3CCCC3)c2c1,-0.506
2,Cc1ccc(C)c(N2CCN(C(=O)c3cn(C)c4ccc(S(=O)(=O)N(C)C)cc4c3=O)CC2)c1,-0.414
3,Cn1c(SCC(=O)c2ccc(F)cc2)nnc1-c1ccccc1N,-0.0125
4,CC(=O)c1cc2c(cc1NC(=O)CCC1CCCC1)OCO2,0.181
5,O=C(Nc1ccccc1)C(=O)Nc1ccccn1,-0.125
6,C=CCOC(=O)C1=C(C)NC(SCC(=O)Nc2ccc(C)c(Cl)c2)=C(C#N)C1c1ccco1 (stereo unspecified),-0.468
7,Cc1ccccc1NCc1ccc(O)c2ncccc12,0.65
8,Clc1ccc(Sc2cc(N3CCOCC3)nc(-c3ccccc3)n2)cc1,-0.294
9,CCNc1c2c(nc3ccccc13)CC(C)(C)CC2=O,-0.0295
10,CCCCCc1ccc(-c2ccc(/C=C/C(=O)O)cc2)nc1,0.148
11,O=C(c1cccc(Br)c1)N1CCN(C(=O)N2CCOCC2)CC1,0.0709
12,CCNC(=O)C1CCCN1S(=O)(=O)c1ccc(C)cc1 (stereo unspecified),-0.513
13,O=C(/C=C/c1ccco1)N1CCN(c2ncccn2)CC1,-0.252
14,CC(C)(C)C1=CC(=Nc2ccccc2N)C=C(C(C)(C)C)C1=O,0.127
15,Cc1ccc(C(=O)Nc2c(C)cc(-c3ccc(Cl)cc3)oc2=O)cc1,1.81
16,CC1CCCCC1NC(=O)/C(C#N)=C/c1ccc(OCC(N)=O)cc1 (stereo unspecified),-0.0712
17,Cc1cccc(C(C)C)c1NC(=O)COC(=O)COc1ccc2c(C)cc(=O)oc2c1,0.217
18,Cc1ccc(-c2nnn(CC(=O)O)n2)cc1,0.449
19,CCN(CC)C(=O)CSc1nnc(SCc2ccc(Cl)cc2)s1,0.687
20,CCN1C(=O)S/C(=C/c2cn(C)c3ccccc23)C1=O,-0.127
21,Cc1ccc(C)c2c1[nH]c1ccccc12,0.153
22,O=C(CCCSc1nnc(SCCCC(=O)c2ccc(F)cc2)s1)c1ccc(F)cc1,-0.115
23,O/N=C/c1cn(-c2ccccc2)nc1-c1ccc2c(c1)OCCO2,-0.458
